{
  "source": "PubChem BioAssay AID1466",
  "about": "(National Center for Advancing Translational Sciences (NCATS), 2008)",
  "note": "Screen size: about 200,000 compounds; about 10 (0.005%) were called active. The inconclusive results got no clear call from the source; some entries with a clear call stand among them for comparison. Calls follow the shape of the dose curve; as a rule, active = well fitted inhibition curve with a large enough effect; inconclusive = small, poorly fitted or top-dose-only effect, or effect the other way, or another doubt; inactive = no such curve, though single readings can be large or run the other way. No potency is given beside an inconclusive call; the fits are too rough. Potency is read from the fitted curve at half-maximal effect; tags tell the direction and shape of the fitted curve.",
  "data": [
    {"target": "Lysosomal alpha-glucosidase (Homo sapiens) (UniProt P10253)", "assay": "qHTS Assay for Inhibitors of Human alpha-Glucosidase as a Potential Chaperone Treatment of Pompe Disease;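 as to activity change, negative = inhibition: plate controls were uninhibited enzyme wells for no effect and no-enzyme background for full effect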", "settings": "purified human GAA, 4-MU-alpha-glucoside fluorescence; activity change, negative = inhibition: at 76.9 µM (top of the series) unless noted", "procedure,_shortened": "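AC50 values come from Hill fits of compound titrations (up to 77 uM) against 4 nM human enzyme. Substrate 4-methylumbelliferyl-alpha-D-pyranoside at 400 uM, pH 5.0 citrate buffer, 20 min room temperature; fluorescence Ex 365/Em 440 after alkaline stop.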", "values": [
      {"smiles": "O=C1COc2ccc(C(=O)NC3CC3)cc2N1", "Potency": "inconclusive [inhibitor, single point]"},
      {"smiles": "COc1ccc(N2C(=O)N(Cc3cccc(F)c3)c3ccccc3S2(=O)=O)cc1", "Potency": "inconclusive [inhibitor, partial curve, poor fit]"},
      {"smiles": "COc1ccc(C2CC(=O)c3cnc(N4CCc5ccccc54)nc3C2)cc1OC", "note": "(stereo not given)", "Potency": "inconclusive [activator, partial curve]"},
      {"smiles": "COC(=O)Nc1ccc2c(c1)N(C(=O)CCN1CCOCC1)c1ccccc1S2", "Potency": "inconclusive [inhibitor, full curve, poor fit]"},
      {"smiles": "Cc1nn(-c2ccccc2)c(C)c1/C=N/n1c(-c2ccc(C(C)(C)C)cc2)n[nH]c1=S", "Potency": "inconclusive [inhibitor, partial curve, poor fit]"},
      {"smiles": "O=C(O)CCCCCCNC(=O)c1cncc(O)c1", "activity change, negative = inhibition": "inactive: 2.64%"},
      {"smiles": "Cc1c(CN2CCC(CO)(Cc3cccc(C(F)(F)F)c3)CC2)c2ccccc2n1C", "activity change, negative = inhibition": "inconclusive: -16.5% [inhibitor]"},
      {"smiles": "O=Nc1ccc(NOC(=O)c2ccccc2Br)cc1", "Potency": "inconclusive [inhibitor, single point]"},
      {"smiles": "Cn1c(=O)c2cc(S(=O)(=O)NC(Cc3ccccc3)C(=O)NCC3CCCO3)ccc2n(C)c1=O", "note": "(stereo not given)", "activity change, negative = inhibition": "inconclusive: 17.5% [activator]"},
      {"smiles": "O=C(NC(Cc1ccccc1)C(=O)O)c1ccco1", "note": "(stereo not given)", "activity change, negative = inhibition": "inconclusive: 13.2% [activator]"},
      {"smiles": "CCOC(=O)C1=C(Cc2ccc(F)cc2)C(=O)c2ccccc2C1=O", "activity change, negative = inhibition": "inactive: -2.26%"},
      {"smiles": "CCCCCCSc1ncc(C#N)c(N)n1", "Potency": "inconclusive [inhibitor, single point]"},
      {"smiles": "O=C(COC(=O)CNS(=O)(=O)c1c(Cl)cccc1Cl)Nc1ccccc1Sc1ccccc1", "Potency": "inconclusive [inhibitor, partial curve]"},
      {"smiles": "Cc1nn(Cc2ccccc2)c(Cl)c1/C=C/C(=O)OCC(=O)N1CCCC1=O", "Potency": "inconclusive [inhibitor, partial curve, poor fit]"},
      {"smiles": "c1ccc(OCCSc2nnc3sc4ccccc4n23)cc1", "activity change, negative = inhibition": "inactive: -3.97%"},
      {"smiles": "O=c1c2ccccc2c(/C=N/c2nnc(Cc3ccccc3)s2)c(O)n1-c1ccc(Cl)cn1", "Potency": "inconclusive [inhibitor, single point]"},
      {"smiles": "COc1ccc(C(c2nnnn2C(C)(C)C)N2CCN(c3nc4ccccc4s3)CC2)cc1OC", "note": "(stereo not given)", "Potency": "inconclusive [inhibitor, single point]"},
      {"smiles": "Cc1cccc(NC(=O)c2ccccc2NC(=O)C2CCCCC2)c1C", "activity change, negative = inhibition": "inactive: 6.25%"},
      {"smiles": "COc1ccc(C(NC(=O)c2ccc(F)cc2)c2ccccc2)cc1", "note": "(stereo not given)", "Potency": "inconclusive [inhibitor, single point]"},
      {"smiles": "N/C(=N\\OS(=O)(=O)c1ccc(Cl)cc1)c1ccncc1", "Potency": "inconclusive [inhibitor, partial curve, poor fit]"},
      {"smiles": "Cc1ccc2cc(/C=N/NC(=O)[C@H]3C[C@@H]3c3ccccc3)c(Cl)nc2c1", "Potency": "inconclusive [activator, single point]"},
      {"smiles": "Nc1ccc2nc(-c3ccccn3)[nH]c2c1", "activity change, negative = inhibition": "inactive: -4.15%"},
      {"smiles": "COc1ccc(/C=C(/NC(=O)c2cccc([N+](=O)[O-])c2)C(=O)O)cc1OC", "activity change, negative = inhibition": "inconclusive: 16.2% [activator]"},
      {"smiles": "CC1(C)C(=O)OC(C(=O)c2ccc(Cl)cc2)C(C)(C)C1=O", "note": "(stereo not given)", "Potency": "inconclusive [inhibitor, single point]"},
      {"smiles": "Cc1ccc(S(=O)(=O)NC(=S)NC2CCCCC2)cc1", "Potency": "inconclusive [activator, full curve, poor fit]"},
      {"smiles": "COc1ccc(-n2cc(CN(C)CCO)c(-c3cccc(F)c3)n2)cc1", "activity change, negative = inhibition": "inconclusive: 18.4% [activator]"},
      {"smiles": "Cc1cccc(OCC(=O)Nc2nnn(C)n2)c1C", "Potency": "inconclusive [inhibitor, single point]"},
      {"smiles": "O=C(CN1CCN(CC(=O)c2ccc(F)cc2)CC1)Nc1ccccc1Cl", "Potency": "inconclusive [inhibitor, partial curve]"},
      {"smiles": "COc1ccc(C(=O)Cn2c(C(=O)/C=C/c3ccccc3)nc3ccccc32)cc1", "activity change, negative = inhibition": "inconclusive: -17.4% [inhibitor]"},
      {"smiles": "CCn1c(SCC(=O)N2CCN(S(=O)(=O)c3ccccc3)CC2)nnc1-c1cccs1", "Potency": "inconclusive [inhibitor, single point]"},
      {"smiles": "CCOC(=O)c1sc(NC(=O)C(C)C)c(C#N)c1C", "activity change, negative = inhibition": "inconclusive: 14.4% [activator]"},
      {"smiles": "CC(C)Oc1cc(NC(=O)CS(=O)CC(=O)Nc2cccc(C(F)(F)F)c2)c(Cl)cc1Cl", "note": "(stereo not given)", "Potency": "inconclusive [inhibitor, single point]"},
      {"smiles": "O=C(Nc1sc2c(c1C(=O)O)CCCCC2)c1cccs1", "Potency": "inconclusive [inhibitor, full curve]"},
      {"smiles": "CCCCCCC(=O)N/N=C1\\CCCc2ccccc21", "Potency": "inconclusive [inhibitor, partial curve]"},
      {"smiles": "O=C(CCC(=O)N1CCN(S(=O)(=O)c2ccc(Cl)cc2)CC1)Nc1ccc(Cl)cc1Cl", "Potency": "inconclusive [inhibitor, single point]"},
      {"smiles": "Cc1ccc(-c2nc(N/N=C/c3cccnc3)c3ccccc3n2)cc1", "Potency": "inconclusive [inhibitor, single point]"},
      {"smiles": "CSc1ccccc1NC(=O)C(=O)c1c[nH]c2ccccc12", "Potency": "inconclusive [inhibitor, full curve]"},
      {"smiles": "CCCCCn1c(=O)[nH]c2cc(C(=O)N3CCN(Cc4ccc5c(c4)OCO5)CC3)ccc2c1=O", "Potency": "inconclusive [activator, single point]"},
      {"smiles": "CN(C(=S)NC(=O)CCCOc1ccc(Cl)cc1Cl)c1ccccc1", "Potency": "inconclusive [inhibitor, single point]"},
      {"smiles": "CCN(CC)S(=O)(=O)c1cc(NC(=O)COC(=O)CCc2nc3ccccc3s2)ccc1C", "Potency": "inconclusive [inhibitor, partial curve]"},
      {"smiles": "O=S(=O)(c1ccccc1)N1CCN(CC(O)COc2ccc3c(c2)CCC3)CC1", "note": "(stereo not given)", "Potency": "inconclusive [inhibitor, single point]"},
      {"smiles": "CN(C)S(=O)(=O)c1ccc(Cl)c(NC(=O)CN2CCC(Cc3ccccc3)CC2)c1", "Potency": "inconclusive [inhibitor, single point]"},
      {"smiles": "CC(C)C(=O)Nc1sc2c(c1-c1nc3ccccc3[nH]1)CCCC2", "Potency": "inconclusive [activator, single point]"},
      {"smiles": "CCOC(=O)Cc1csc(NC(=O)NC2(C(F)(F)F)Oc3ccc(Cl)cc3O2)n1", "note": "(stereo not given)", "activity change, negative = inhibition": "inactive: -0.828%"},
      {"smiles": "NC(=O)[C@@H]1CCCCNc2c(I)cc([N+](=O)[O-])cc2C(=O)N[C@@H](CCC(=O)O)C(=O)N[C@@H](CO)C(=O)N1", "Potency": "inconclusive [inhibitor, single point]"},
      {"smiles": "CN(C(=O)c1ccccc1C(=O)OCC(=O)NCc1ccccc1)C1CCCCC1", "Potency": "inconclusive [inhibitor, partial curve]"},
      {"smiles": "O=c1cc(-c2ccccc2[N+](=O)[O-])oc2ccccc12", "activity change, negative = inhibition": "inconclusive: 5.37% [activator]"},
      {"smiles": "CCn1c(CNC(=O)c2cccs2)nnc1SCC(=O)Nc1cc(Cl)ccc1C", "activity change, negative = inhibition": "inactive: -11.7%"},
      {"smiles": "CN(C)c1ccc(-c2nn3c(-c4ccccc4Cl)nnc3s2)cc1", "Potency": "inconclusive [activator, partial curve, poor fit]"},
      {"smiles": "COc1cc(CNC(C)C)c(Br)cc1OC1CCCC1", "activity change, negative = inhibition": "inconclusive: 2.04% [activator]"},
      {"smiles": "CCC(=O)N(CC)C1=C(O)c2ccccc2C(=O)C1=O", "activity change, negative = inhibition": "inactive: -4.18%"},
      {"smiles": "CC(C)N1CCC(N2CCN(Cc3cccc4nonc34)CC2CCO)CC1", "note": "(stereo not given)", "activity change, negative = inhibition": "inconclusive: 12.3% [activator]"},
      {"smiles": "O=C(CN(C1CCCCC1)S(=O)(=O)c1ccc(Br)cc1)NCc1cccnc1", "Potency": "inconclusive [inhibitor, partial curve, poor fit]"},
      {"smiles": "O=C(/C=C/c1cccs1)c1cc(Br)ccc1OC(=O)N1CCOCC1", "Potency": "inconclusive [inhibitor, single point]"},
      {"smiles": "CSc1ccccc1C(=O)C1CCCN(Cc2c(C)n(C)n(-c3ccccc3)c2=O)C1", "note": "(stereo not given)", "Potency": "inconclusive [inhibitor, single point]"},
      {"smiles": "COc1ccc(-c2cc(-c3ccccc3)nc3ncnn23)cc1", "Potency": "inconclusive [activator, single point]"},
      {"smiles": "Cc1ccc(/C=c2\\sc3n(c2=O)CN(c2ccc(Br)cc2)CN=3)o1", "Potency": "inconclusive [inhibitor, single point]"},
      {"smiles": "O=C(N/N=C/c1ccsc1)c1cc(-c2cccs2)nc2ccccc12", "Potency": "inconclusive [activator, full curve]"},
      {"smiles": "O=C1CCC([N+](=O)[O-])C(c2ccccc2Cl)N1", "note": "(stereo not given)", "Potency": "inconclusive [inhibitor, single point]"},
      {"smiles": "COC(=O)c1cc(C(=O)OC)n(Cc2ccc(C)cc2)c1C", "Potency": "inconclusive [inhibitor, single point]"},
      {"smiles": "COc1ccc(-n2c(COc3ccc4ccccc4c3)nnc2SCC(=O)NCc2ccco2)cc1", "Potency": "inconclusive [inhibitor, partial curve, poor fit]"},
      {"smiles": "Cc1ccc(-c2nn3c(C)nnc3s2)cc1NC(=O)c1cccs1", "Potency": "inconclusive [inhibitor, single point]"},
      {"smiles": "Cc1ccc(-c2cc(C(=O)N3CCN(c4ncccn4)CC3)c3cc(Br)ccc3n2)o1", "activity change, negative = inhibition": "inactive: 13.5%"},
      {"smiles": "CC1=NN(CCC#N)C(=O)/C1=C/c1ccc(N(C)C)cc1", "Potency": "inconclusive [inhibitor, single point]"},
      {"smiles": "Cc1ccc(-c2nc3ccccc3c(=O)n2NC(=O)COc2ccccc2)cc1", "Potency": "inconclusive [inhibitor, single point]"}
    ]}
  ]
}
